These results are taken from the RNAGym collection of RNA variant scans (doi:10.1093/nar/gkz1192).

Read counts are not given, so values of variants with three or more changes are uncertain.

The chains are these.
B1: CPEB3 Ribozyme (parent)
chain: UAACAGGGGGCCACAGCAGAAGCGUUCACGUCGCAGCCCCUGUCAGAUUCUGGUGAAUCUGCGAAUUCUGCUGUAUAUCUC

In the series the parent is B1. Kind of series: self-cleavage, relative activity (ratio to wild type); higher = more cleavage; in vitro, sequencing. The method, boiled down:
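Relative activity was defined as the cleaved/total read fraction for a variant divided by the same fraction for the unmutated ribozyme. CPEB3 self-cleaving ribozyme libraries were made by rounds of error-prone PCR, barcoded, and transcribed in vitro with T7 RNA polymerase for 5 hours at 37°C, and cleavage ran through transcription plus a 15 min DNase I step before EDTA. Illumina sequencing of template-switched reverse transcripts gave the reads, and DNA sequencing mapped the barcodes. Averages come from three batches, using variants with at least 5 reads.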
A15G C38A U51A U58A A64C U72C U78C: the self-cleavage was determined as 0.04. As to A15G G24U U41C A56G U78C U80C, the self-cleavage was found to be 0. Next, A15G C40U U60C: 0.23; A15G C38G A56G: 0.41; A15G A64G U80C: 0.79.

As to A15G A64C U67C, the self-cleavage turned out to be 0.18. To A15G G33A U74A belongs 0.41; to A15G A18U C32A A35G U41A, 0.06. To A15G A28U A47G U72C belongs 0.99; to A15G A21G C32A U80C, 0.1; to A15G A35C U41C, 0.58. To A15G A21G U26C G33A U51A A56G U72C belongs 0.07; to A15G C40A U69C, 0.05; to A15G A45U C62U, 0.38. For the variant A15G G33A A75G, the self-cleavage came out at 0.08.

On to A15G A21G U31C C40U, for which the self-cleavage is 0.23. Take A15G A21G A57G U72A: the self-cleavage was found to be 0.17. With A15G A21C A28U A35U, the self-cleavage amounted to 0.21.

Turning to A15G G16A A45G U48C U80C, the self-cleavage was 0.17. Next, A15G A35U A64U U66C: 0.16; A15G A28U C44U A56U A57G A64G: 0.08. Turning to A15G A57G U66C U80C, the self-cleavage came to 0.93. With A15G A21G A28G U58A A64U A65G, the self-cleavage came out at 0.09.

With A15G G30A U41A A56U U66G A77U U78C, the self-cleavage turned out to be 0.03. Turning to A15G A56U U80A, the self-cleavage was 0.65.

Consider A15G A28U C68U U72G, for which the self-cleavage was found to be 0.05. Next, A15G A20G C40U: 0.26; A15G C23A U74C U78A: 0.11.

For A15G A64C U80C, the self-cleavage is 0.19. On to A15G A20U U78C, for which the self-cleavage came to 0.26. For the variant A15G A47G A75G, the self-cleavage turned out to be 0.89.

In the case of A15G A20G U25C C59A A65G, the self-cleavage turned out to be 0.33. As for A15G C17U A21U A28G A45U U60A U72C, the self-cleavage was found to be 0.1. A15G A18U U26C U51A A57C U67C: the self-cleavage is 0.06. Turning to A15G C23A U41C U43A G52U G53C U54C, the self-cleavage was found to be 0.07.

As to A15G A20G A47G A56G U72A, the self-cleavage came to 0.24.

With A15G A21U A45G, the self-cleavage came to 0.28. To A15G C32G U43C A45G U49C belongs 0.09; to A15G G24A A28C A35U U48C, 0.22. Consider A15G A57G U78C, for which the self-cleavage came out at 0.58. To A15G C39U A65G belongs 0.11; to A15G A35G A56G, 0.42; to A15G A21G U41A A57G, 0.31. To A15G A20U G30A U51C A57U U80C belongs 0.12; to A15G A20G U25C U60C U66C G73A A77G, 0.12.

On to A15G A45G U58G C59U, for which the self-cleavage is 0.16.

A15G A18U A35G: the self-cleavage turned out to be 0.34. Next, A15G G30A G52U U69C: 0.07. Next, A15G A21G A35U A56G U58A U69A G73A: 0.1; A15G A20G C40U A45U G46A: 0.12; A15G A28U A35G U54A A56U A64G A77G: 0.11. Next, A15G A28U U49A G61A A77G: 0.09; A15G A28U U48C U69C: 0.1. In the case of A15G A20G U49A U51C U54C U72C, the self-cleavage turned out to be 0.63. As to A15G A35U U69C U72G, the self-cleavage is 0.07.

For A15G C27A G42A A45U, the self-cleavage stood at 0.23. Next, A15G A18G U48C: 0.21; A15G A18G U49C: 0.12; A15G A47G U48C G55U U76A: 0.1.

In the case of A15G A35G U72G U76C, the self-cleavage worked out at 0.54. As for A15G A47G U48G, the self-cleavage was determined as 0.14. Next, A15G A77U U80C: 1.08; A15G A20G U31A A45G A47G U72C: 0.08; A15G C17U U43C U78C: 0.32. As to A15G A57G U58C A64G U69C, the self-cleavage is 0.2. Regarding A15G C39G G63A U80A, the self-cleavage is 0.14. Next, A15G A45U U69C: 0.15; A15G A20G A45G G61A: 0.21; A15G A45U A64U: 0.29. To A15G A20U A21U C40U U80C belongs 0.25; to A15G G30U A47G, 0.19; to A15G C17A A18G A21G G53A, 0.35. With A15G A45C A57G, the self-cleavage was 0.2.

In the case of A15G A21C C44A A56G A64G U69A, the self-cleavage is 0.12.

In the case of A15G A21G U25A U41C, the self-cleavage was determined as 0.37. To A15G A28C U41C A45G belongs 0.3; to A15G A28G U67A U78A, 0.23. A15G C29U U54C A77U U78C: the self-cleavage was determined as 0.27. To A15G A45G A56U A77C belongs 0.05; to A15G A28G G33A A45G G63U U74C, 0.08; to A15G A35G A57G, 0.78.

Take A15G C23U A47G: the self-cleavage came to 0.45. Consider A15G A35U U54G A75U, for which the self-cleavage stood at 0.67. For A15G A18U A21G U26A U41A A57G U58A, the self-cleavage is 0.06. Consider A15G A57G U58C U78C, for which the self-cleavage was found to be 0.13. To A15G G22A C71A U72A U78C belongs 0.04; to A15G A57G U67C, 0.07. On to A15G A28C U41A C44A, for which the self-cleavage came to 0.3. To A15G G24U U25C U51A A75G belongs 0.23; to A15G G16C G63C, 0.21; to A15G A18U U43C, 0.38.

As for A15G A28G G36C A47G U51A A56G A57C, the self-cleavage turned out to be 0.17.

Turning to A15G C23U U41C U43A A56C, the self-cleavage was determined as 0.17.

For A15G A18U U60A, the self-cleavage came out at 0.15. For A15G C17G A56U U78A, the self-cleavage stood at 0.14. To A15G G46U U51C G63A belongs 0.16; to A15G A45G U54A U72C, 1.13; to A15G A35C U51C C71A U78C, 0.13.

For A15G C40G C44G, the self-cleavage was found to be 0.33. A15G A45G U80C: the self-cleavage came to 0.94. Consider A15G G16A U25C U31C U41C U72A, for which the self-cleavage is 0.06. With A15G A28U G61U, the self-cleavage was 0.16. As for A15G A18U A28C A45G U60C U67A U74C, the self-cleavage stood at 0.09. To A15G A35U A45U G61A belongs 0.15. Consider A15G G30A U48C, for which the self-cleavage turned out to be 0.19.

For the variant A15G A35C A47G U54C U76C U80C, the self-cleavage was 0.58. In the case of A15G A47G A77G, the self-cleavage came to 1.15. With A15G C40U U43C U60A, the self-cleavage worked out at 0.15. Regarding A15G C17A U25C U43A, the self-cleavage was found to be 0.06. Next, A15G A20U U43A A47G: 0.2; A15G A28U A35U U67C: 0.15.

As to A15G C40U G73A, the self-cleavage amounted to 0.7.

A15G C37U U60C U80C: the self-cleavage is 0.34.

As to A15G A35U U72A, the self-cleavage was 0.25.

Turning to A15G C34U U58C C71G, the self-cleavage is 0.08. To A15G A21G U80A belongs 0.94; to A15G A21U U26C A45U U58C, 0.09. On to A15G G22A A47G, for which the self-cleavage is 0.13. As for A15G C38U U58A U60A A65G U78C, the self-cleavage worked out at 0.04. Next, A15G A56U U67A: 0.17. To A15G A21G U26C U60A U72G belongs 0.07; to A15G C32U U78C, 0.11. Regarding A15G A65G U66C, the self-cleavage is 0.23. On to A15G A28G U49C U72A U80C, for which the self-cleavage is 0.09. Next, A15G A20G U25C A28U: 0.41; A15G A35U U43A C50A A56U U66A: 0.21.

As for A15G A35U A45U U51C, the self-cleavage worked out at 0.18.

A15G A21U G46C U72C U78C: the self-cleavage stood at 0.15. Next, A15G G24A C39U C50A U54A: 0.09. Next, A15G A45U A47G C81U: 0.5; A15G A56G U66C A77U: 0.31; A15G A21G U43A A65G U69A: 0.11.

Regarding A15G A35G U41C G53A, the self-cleavage stood at 0.54. To A15G C39A U41C A56G U78C belongs 0.1; to A15G A45U A47G, 0.35.

Turning to A15G A28U A45G U51C U54C U69C G70U, the self-cleavage was found to be 0.08. As for A15G G42A A64U, the self-cleavage amounted to 0.16. Next, A15G A21G U26C U69A: 0.44. Turning to A15G C44G U60A, the self-cleavage was 0.2. Consider A15G A57G U66C, for which the self-cleavage was found to be 0.21.

As to A15G G16A U31C A45U U60A, the self-cleavage was 0.19. To A15G C17G C59A belongs 0.3; to A15G C39U G53A, 0.85.

Take A15G A65U U66C: the self-cleavage came out at 0.34. Next, A15G A28U G46A U60A U69C U72A: 0.05; A15G A47G U51C U60C: 0.27. For A15G A21G A35U U41C U49C, the self-cleavage amounted to 0.03. As to A15G A21G U41C, the self-cleavage was 0.46. To A15G C27A A64G belongs 0.22; to A15G A45U U49G, 0.15. Take A15G C27A U66C: the self-cleavage came to 0.07. Next, A15G G16A C27A G42A U54G U66A: 0.03; A15G A18U U43C U51C: 0.28; A15G C34U A35U G52A U76C: 0.15. To A15G A57G U60C A77G U80G belongs 0.39; to A15G C27G A28C U41C U69A, 0.26.

Regarding A15G A20G A21G U41C A56G, the self-cleavage turned out to be 0. To A15G A35G C79U belongs 0.43; to A15G A20U A21G U43C G55U, 0.09.

For the variant A15G A20U A35G, the self-cleavage turned out to be 0.16. Next, A15G A56G A57G U72C: 0.63; A15G A28G U31A U43A: 0.33.

On to A15G C23A U26C, for which the self-cleavage was 0.31.

A15G A21G A56U U72C: the self-cleavage came to 0.66. Consider A15G C44A A56G, for which the self-cleavage is 0.16.

Take A15G A18G U54C A77C: the self-cleavage is 0.18. To A15G C32U U51C belongs 0.18.
